Some of the results follow. These are noisy estimates, calculated here from bound and input reads.
biological target: T1, Pho4 (S. cerevisiae) (UniProt P07270); experiment: relative binding free energy (BET-seq); higher = weaker binding; settings: reference: library average
T1 sequence: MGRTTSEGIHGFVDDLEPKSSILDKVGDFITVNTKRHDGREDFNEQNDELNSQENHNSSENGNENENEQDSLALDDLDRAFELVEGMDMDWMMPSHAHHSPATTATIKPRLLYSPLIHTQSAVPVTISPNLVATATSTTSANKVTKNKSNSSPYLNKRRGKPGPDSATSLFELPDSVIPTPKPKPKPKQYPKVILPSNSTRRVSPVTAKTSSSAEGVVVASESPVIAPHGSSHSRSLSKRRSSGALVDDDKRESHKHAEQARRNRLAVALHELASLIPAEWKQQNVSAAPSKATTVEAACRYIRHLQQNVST

| Sequence | relative binding free energy [kcal/mol] |
| --- | --- |
| GTTGCCACGTGAGGGT | 0.06 |
| AAAGTCACGTGGGGCA | -0.09 |
| ATGCACACGTGTTAGT | -0.06 |
| TAACTCACGTGTGTTT | 0.21 |
| ACGGTCACGTGGTCGT | -0.07 |
| TGTAACACGTGAGTTT | 0.27 |
| AGGCTCACGTGAATGT | 0.35 |
| CTTGTCACGTGATTTT | 0.23 |
| ATGAGCACGTGAATTT | 0.29 |
| GGTAACACGTGGGATA | -0.2 |
| TGTTGCACGTGGTTCG | -0.15 |
| TCGTTCACGTGGGTCG | 0.13 |
| GTTAGCACGTGGGTTG | -0.22 |
| TATGTCACGTGTTCTT | 0.09 |
| ACGGTCACGTGTGTGG | 0.15 |
| GGTAGCACGTGGGATA | -0.05 |
| AGATTCACGTGATGAT | 0.27 |
| TAGGACACGTGTGGAC | 0.22 |
| GCTGTCACGTGGGAGG | 0.03 |
| TCGGGCACGTGGTGTT | -0.2 |
| TTCAGCACGTGGTCTG | -0.14 |
| TGACTCACGTGGGATT | 0.21 |
| TGGCTCACGTGGGAGG | 0.16 |
| CGATTCACGTGGATGT | 0.24 |
| TGTTACACGTGATGAA | 0.3 |

| Sequence | relative binding free energy [kcal/mol] |
| --- | --- |
| TAGTGCACGTGTGCTA | -0.07 |
| TAGAGCACGTGTGGCT | -0.18 |
| ATAGGCACGTGCTGAG | -0.17 |
| GGTTGCACGTGCGTAT | -0.03 |
| TCAGGCACGTGCTGGG | -0.17 |
| TGGCGCACGTGTTATA | 0.08 |
| TGGGTCACGTGGTGTA | 0.09 |
| GGTTGCACGTGTTTGC | 0.04 |
| TACAACACGTGGAGGG | 0.09 |
| TAGGGCACGTGAGTGC | 0.14 |
| GAGTGCACGTGGCAGG | 0.03 |
| TCGGTCACGTGGAGTT | 0.14 |
| TTTAGCACGTGCTTGA | -0.12 |
| CGAGGCACGTGAATGT | 0.15 |
| TGTTCCACGTGTCTGG | 0.03 |
| ATGTGCACGTGAATAG | 0.16 |
| TAGGACACGTGTATAG | 0.05 |
| AAGGGCACGTGTGCCT | -0.03 |
| TTAGTCACGTGGTAGC | 0.05 |
| CAGTGCACGTGGGGGC | -0.26 |
| GTAGGCACGTGAGTTG | 0.28 |
| TTGAACACGTGTGGTC | 0.03 |
| AGGGGCACGTGTCAGA | -0.13 |
| CGGGTCACGTGTGAGG | 0.24 |
| TGTGTCACGTGGCTTG | -0.04 |

| Sequence | relative binding free energy [kcal/mol] |
| --- | --- |
| ATGGGCACGTGTACGA | -0.15 |
| TGTTGCACGTGCCTGT | -0.33 |
| GTGCGCACGTGGAGGT | -0.02 |
| TGGATCACGTGATTGT | 0.39 |
| GTCTACACGTGGTGGA | 0.14 |
| AGGTTCACGTGATAAA | 0.36 |
| GGATCCACGTGTTATG | 0.22 |
| GAAGGCACGTGGATGA | -0.03 |
| GGGGACACGTGTTTAA | 0.14 |
| AAGGACACGTGTTCGG | -0.18 |
| AGTTACACGTGGGTCG | 0.06 |
| TATGACACGTGTATTA | -0.02 |
| ATAAGCACGTGGTGAG | -0.02 |
| GGATTCACGTGTGTGC | 0.3 |
| GATGGCACGTGTGGAC | -0.03 |
| GTACTCACGTGTTTTG | 0.29 |
| CCTATCACGTGTGGTG | 0.11 |
| AACCTCACGTGGGGGT | 0.12 |
| ATTGGCACGTGTGGCC | -0.15 |
| GGATGCACGTGTTAGT | 0.06 |
| CAGATCACGTGGTGGA | 0.1 |
| AGTAGCACGTGTTCTG | -0.14 |
| AAGTGCACGTGAGGCT | 0.23 |
| AGATACACGTGGGGTG | -0.18 |
| TTTAACACGTGGAGGA | 0.07 |

| Sequence | relative binding free energy [kcal/mol] |
| --- | --- |
| AGCTTCACGTGGGTGG | 0.05 |
| GGGTCCACGTGTGATT | 0.12 |
| ATCTTCACGTGATTGG | 0.38 |
| AGAGTCACGTGGGATC | 0.08 |
| ATAATCACGTGGGAAG | 0.12 |
| TTGGTCACGTGTAACG | 0.27 |
| ATGGACACGTGGGTAA | -0.17 |
| TGTGTCACGTGTCGTT | 0.15 |
| TTGATCACGTGTGCAG | -0.04 |
| TGATGCACGTGGGAGC | 0 |
| GATTGCACGTGGGTGA | 0.04 |
| TGGAACACGTGTAGGT | 0.07 |
| TGACGCACGTGGTGGT | -0.27 |
| CGTGTCACGTGGGCGT | -0.21 |
| CTTGGCACGTGGTTAT | -0.12 |
| TAGAGCACGTGAGTCG | 0.14 |
| TAGTGCACGTGGGCTA | -0.19 |
| TGTATCACGTGGGGTC | 0.07 |
| TTGTTCACGTGTCGTG | 0.26 |
| GGGTGCACGTGAGTTT | 0.38 |
| CGGTCCACGTGTGAGT | 0.29 |
| TGGGTCACGTGAGTGT | 0.21 |
| GTGAGCACGTGGAGTA | -0.11 |
| TCGAGCACGTGGGGGA | -0.24 |
| TTCGACACGTGAAGTG | 0.27 |

| Sequence | relative binding free energy [kcal/mol] |
| --- | --- |
| TTGGACACGTGTTCAT | 0.07 |
| CTACTCACGTGAGGGT | 0.34 |
| AGTAGCACGTGAAAGT | 0.12 |
| GTGCTCACGTGGGGTG | 0.15 |
| TATAACACGTGATGGG | 0.05 |
| GAGGGCACGTGCTTAG | -0.06 |
| CTTTTCACGTGATTGT | 0.23 |
| TTAGTCACGTGGCAAG | 0.02 |
| AGCCGCACGTGGTGGG | -0.14 |
| GGTTACACGTGGTTTT | 0.2 |
| ATGTGCACGTGAGGGA | 0.14 |
| CCAGTCACGTGAGGGT | 0.15 |
| TTTTCCACGTGTTTAG | 0.12 |
| GATGACACGTGCGTTG | 0 |
| CTATACACGTGTGTTT | -0.02 |
| TTGAACACGTGGTACT | 0.04 |
| TGCAGCACGTGTATGT | -0.12 |
| AGGAGCACGTGTGGCT | -0.12 |
| TGTGACACGTGAGCGT | 0.16 |
| CCGATCACGTGGGGTT | 0.03 |
| GAGCGCACGTGGTAGT | -0.04 |
| GGGATCACGTGAGCGT | 0.16 |
| CGGGTCACGTGCGGTA | 0.07 |
| GTTTGCACGTGGCTGT | -0.07 |
| AACAGCACGTGGGTTG | -0.23 |

| Sequence | relative binding free energy [kcal/mol] |
| --- | --- |
| TTTGGCACGTGTCTCT | -0.01 |
| GGGGGCACGTGGGGGC | -0.1 |
| TGCATCACGTGGTGCT | 0 |
| TTTATCACGTGTGTGT | 0.21 |
| GGCTTCACGTGAAGAT | 0.57 |
| TTGAGCACGTGTCATG | -0.18 |
| TTAATCACGTGAGGAA | 0.37 |
| GTTGTCACGTGAATGA | 0.42 |
| AGGTACACGTGGGACG | -0.17 |
| GTGCACACGTGGTTGT | 0.04 |
| AGACACACGTGTGGTG | -0.02 |
| TTTGACACGTGCGTGA | -0.12 |
| GGGCTCACGTGGTAGG | 0.22 |
| CGGGTCACGTGTGCGA | -0.04 |
| CATGGCACGTGTAAGG | 0.01 |
| GATTGCACGTGTAGGC | 0.07 |
| GGTGTCACGTGCCGTT | -0.04 |
| GTTTACACGTGTGGCT | 0.29 |
| TGTGGCACGTGCGTAA | -0.18 |
| CTTTGCACGTGTGTAC | 0.03 |
| AAGCTCACGTGGTATG | 0.16 |
